The list shows a part of the results.
system: T1, Caupolican (Caup) homeodomain DNA-binding domain; test: PBM E-score (8-mer, recovered from the published 9-mer minima) (E-score (dimensionless, -0.5 to 0.5)); Drosophila protein; higher = stronger relative binding preference, active = 0.31 or more
T1 sequence: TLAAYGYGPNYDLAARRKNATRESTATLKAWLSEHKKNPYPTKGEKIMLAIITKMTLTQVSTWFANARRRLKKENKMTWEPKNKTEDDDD
Protocol: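 Protein binding microarray (PBM): in vitro transcribed/translated Caupolican (Caup) homeodomain DNA-binding domain (residues 214-303) applied at 100 nM to a universal 8-mer PBM array (Agilent AMADID 015681). The 8-mer enrichment score (E-score, range -0.5 to 0.5) was computed, and each 9-mer score is the minimum E-score of its two constituent 8-mers. The E-score is the same for a 9-mer and its reverse complement; 0.31 is the stated binding threshold.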

Sequence	PBM E-score
AGCTCAAT	inactive: -0.0704
AGTAGAGC	inactive: 0.0068
CTTACTCA	inactive: -0.0442
GTGCGGTA	inactive: -0.0407
CCAGCAGG	inactive: -0.23
CTGTTTTC	inactive: 0.134
AACCTCTA	inactive: -0.109
ACAGGAGC	inactive: 0.0816
CTGCGCCA	inactive: -0.229
AACTTCGC	inactive: -0.0814
AGGTTGAG	inactive: -0.0734
TGTCCGAA	inactive: 0.198
ATAATGAC	inactive: 0.077
AGTCTGTA	inactive: 0.125
ATAGACCC	inactive: -0.0577
CAGTCGAC	inactive: -0.00263
ATCGCATC	inactive: -0.0871
GAGCCCGC	inactive: -0.251
GATGAAGA	inactive: -0.0652
GGCTCCAA	inactive: -0.199
AGAGTGGC	inactive: -0.0745
CACGGAGC	inactive: -0.071
GGACGTAA	inactive: -0.107
GGGAACTA	inactive: -0.0404

Sequence	PBM E-score
CCAAATCA	inactive: 0.0288
TGGATCAA	inactive: 0.0568
ACGGATGC	inactive: 0.0262
ACCCATGA	inactive: -0.0525
GCATACCA	inactive: -0.00368
ACCCCCGA	inactive: -0.198
CGCATTTC	inactive: -0.0244
ACATGTAC	active: ≥ 0.48
CTCTGACC	inactive: -0.164
CTTCTGTC	inactive: 0.0295
ACGGTCAT	inactive: -0.0146
CGGGAAAG	inactive: -0.172
CCGGAAAG	inactive: -0.15
CATCGCTA	inactive: 0.0831
TGTAAACA	active: ≥ 0.36
GTAGGTAA	inactive: 0.0776
TAACCACA	inactive: 0.156
ATAACGCA	inactive: 0.0314
CTAATGTA	inactive: 0.206
GAAGAAAC	inactive: 0.00987
ACAGCTAC	inactive: 0.196
AAACTAAA	inactive: 0.0783
GCTCGTCA	inactive: -0.063
GGCTAACC	inactive: -0.133

Sequence	PBM E-score
CGACACGC	inactive: 0.264
AATAGCTC	inactive: -0.0202
ATGATGGA	inactive: 0.0619
ATCGATCG	inactive: 0.115
ATCAGCGA	inactive: -0.0559
CTTATGGA	inactive: -0.105
AACGTGAA	inactive: 0.0764
GGTCATAC	inactive: -0.00437
GCCCCTCA	inactive: -0.223
CCAATAAC	inactive: 0.136
GTTATCAA	inactive: 0.0817
ACCGCGAA	inactive: -0.125
GCGACGTA	inactive: -0.0424
CATACCCC	inactive: -0.0672
CTTACTGC	inactive: -0.0218
ACCGGCTG	inactive: -0.142
CAAGCTTC	inactive: 0.0453
ACGGAACA	inactive: 0.206
AGACCTTG	inactive: -0.0574
ATGGGCTC	inactive: -0.099
ACTCCGAT	inactive: -0.084
CGATCTAG	inactive: 0.0352
CGCGTACG	inactive: -0.0471
